Experimental data published in PubChem BioAssay AID1458 (National Center for Advancing Translational Sciences (NCATS), 2008).
Hit rate of the full screen: of about 210,000 compounds, about 5,900 (2.8%) were called active. The shares of active, inactive and inconclusive entries below differ from those in the screen. Calls follow the shape of the dose curve; as a rule, active = well fitted activation curve with a large enough effect; inconclusive = small, poorly fitted or top-dose-only effect; inactive = no such curve, though single readings can be large or run the other way. A potency beside an inconclusive call is a rough fit, not a confirmed value.

Experiment: qHTS Assay for Enhancers of SMN2 Splice Variant Expression; also: nearly all actives have a fitted effect of over 55% in size; as to activity change, positive = activation: % of control where 0% means no effect
Settings: HEK293 SMN2-luciferase splicing reporter, luminescence, 30-36 h; activity change, positive = activation: at 46.1 µM (top of the series)
In short: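 HEK293 cells carry an SMN2 […]–luciferase reporter in which exon 7 inclusion puts luciferase in frame. Cells were plated 10-12 h before compound addition, then incubated 30-36 h at 37C. ONE-Glo luminescence was read; sodium butyrate at 4.5 mM final served as control.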
Potency is read from the fitted curve at half-maximal effect; tags tell the direction and shape of the fitted curve.

Row | SMILES | activity change, positive = activation | Potency
1 | O=C(NC12CC3CC(CC(C3)C1)C2)N1CCN(C(=O)C2CCCO2)CC1 (configuration not stated) | inactive: 24.3% | 
2 | Cc1ccccc1/C(N)=N/OC(=O)/C=C/c1ccccc1 |  | inconclusive: 35.5 µM [activator, single point]
3 | FC(F)Sc1ccc(NC(=S)NC2CCC(NC(=S)Nc3ccc(SC(F)F)cc3)CC2)cc1 (configuration not stated) |  | inconclusive: 0.398 µM [activator, partial curve, poor fit]
4 | O=C(CSc1nc2ccccc2[nH]1)NCc1ccco1 | inactive: 15.8% | 
5 | CCCCOC(=O)Nc1ccc(N(C)C)cc1 |  | active: 11.2 µM
6 | CCOC(=O)c1sc(=NC(=O)COc2ccccc2)n(C)c1C |  | inconclusive: 14.1 µM [activator, partial curve]
7 | O=C(O)c1ccc(C2CCCCC2)cn1 |  | inconclusive: 0.0224 µM [activator, full curve, poor fit]
8 | CCOC(=O)c1[nH]c2ccc(F)cc2c1NC(=O)CN1CCN(C/C=C/c2ccccc2)CC1 | inactive: -23.8% | 
9 | COc1ccc(CCNC(=O)C2CCCN(C(=O)N(C)C)C2)c(OC)c1 (configuration not stated) |  | inconclusive: 0.178 µM [activator, full curve]
10 | COc1cc(OC)cc(-c2nc(-c3ccccc3OC)no2)c1 | inactive: 14.1% | 
11 | Cc1cc(C(=O)N/N=C/c2cccnc2)cs1 |  | inconclusive: 11.2 µM [activator, single point]
12 | COc1cccc(Nc2ccccc2C(=O)O)c1 |  | inconclusive: 14.1 µM [activator, single point]
13 | COc1cccc(/C=N/NC(=O)c2cc3c(OC)c(OC)ccc3[nH]2)c1OC |  | inconclusive: 0.178 µM [activator, full curve, poor fit]
14 | Cc1cccc(N(CC(=O)O)CC(=O)O)c1 |  | inconclusive: 35.5 µM [activator, single point]
15 | O=C(CC1Sc2ccc(C(F)(F)F)cc2NC1=O)Nc1ccc(Cl)c(C(F)(F)F)c1 (configuration not stated) |  | inconclusive: 3.98 µM [activator, partial curve]
16 | O=C(COC(=O)CNC(=O)c1cccc([N+](=O)[O-])c1)Nc1cccc(S(=O)(=O)N2CCCC2)c1 | inactive: -2.82% | 
17 | COC(=O)C(C(=O)Nc1ccc(OC)cc1)C1CCCCCC1 (configuration not stated) |  | inconclusive: 0.02 µM [activator, full curve, poor fit]
18 | CSCCC(=O)N1CCCC(CNC(=O)c2ccc(-c3ccccc3)cc2)C1 (configuration not stated) | inactive: -14.1% | 
19 | Oc1csc(Cc2nc(-c3ccc(Br)cc3)cs2)n1 |  | inconclusive: 15.8 µM [activator, partial curve, poor fit]
20 | O=C(O)COc1c(F)c(F)c(C(F)(F)F)c(F)c1F |  | inconclusive: 2.24 µM [activator, full curve, poor fit]
21 | Cc1cccc(OCC(=O)O/N=C(\N)c2ccccn2)c1 |  | inconclusive: 5.62 µM [activator, partial curve]
22 | Cc1ccc(S(=O)(=O)NC(CC(=O)N2CCOCC2)c2ccco2)cc1 (configuration not stated) |  | inconclusive: 15.8 µM [activator, partial curve, poor fit]
23 | Cc1cc(NC(=O)c2ccc(Br)o2)cc(-c2nc3ccccc3o2)c1O |  | inconclusive: 4.47 µM [activator, partial curve]
24 | COc1ccc2nc(NC(=O)CSc3nnc(N)s3)sc2c1 |  | active: 10 µM

Row | SMILES | activity change, positive = activation | Potency
25 | COc1ccc(Cc2nnc(NS(C)(=O)=O)s2)cc1 |  | inconclusive: 2 µM [activator, full curve]
26 | Cc1c2ccccc2nc2c(F)c(N(C)C)c(F)c(F)c12 |  | inconclusive: 35.5 µM [activator, single point]
27 | COC(=O)c1ccccc1NC(=O)CN1CCC(C(=O)c2ccc3c(c2)OCCO3)CC1 | inactive: -32% | 
28 | COc1ccc(NC(=O)N2CCCCC2)cc1 |  | inconclusive: 12.6 µM [activator, partial curve, poor fit]
29 | O=C1CCCC/C1=N\Nc1ccc(OCc2ccccc2)cc1 | inactive: 4.93% | 
30 | O=C(O)C(Cc1c[nH]c2ccccc12)N1CCS(=O)(=O)CC1 (configuration not stated) | inactive: 16.8% | 
31 | Cc1cc(NS(=O)(=O)c2ccc(NC(=O)c3cc(-c4ccccc4Cl)nc4ccccc34)cc2)no1 | inactive: 8.38% | 
32 | Cn1c(=O)c2c(nc(NCC(O)CO)n2CCc2ccccc2)n(C)c1=O (configuration not stated) |  | inconclusive: 22.4 µM [activator, partial curve]
33 | COc1cc(OC)c2c(=O)c(-c3ccccc3)coc2c1 |  | active: 11.2 µM
34 | COc1ccccc1Nc1nc(-c2cccc(N3C(=O)c4ccccc4C3=O)c2)cs1 | inactive: 5.94% | 
35 | COC(=O)CC1C(=O)NCCN1C(=O)CSc1nc2cc(Cl)ccc2o1 (configuration not stated) | inactive: 3.34% | 
36 | O=C(C1CCCCC1)N1CC(=O)N2CCc3ccccc3[C@@H]2C1 | inactive: -1.96% [at 20.6 µM] | 
37 | CCOc1ccc(C(C)(N)C(=O)O)cc1 (configuration not stated) |  | inconclusive: 5.62 µM [activator, single point]
38 | CCN(c1cccc(C)c1)S(=O)(=O)c1ccc2c3c(cccc13)C(=O)N2 | inactive: -10.1% | 
39 | O=C(Cc1cccs1)N/N=C/C=C\c1ccco1 |  | inconclusive: 35.5 µM [activator, single point]
40 | N=C1CCCN1CC(=O)c1ccc(Br)cc1 |  | inconclusive: 22.4 µM [activator, single point]
41 | O=C(Nc1nnc(-c2ccccc2F)s1)Nc1ccccc1F |  | inconclusive: 5.62 µM [activator, single point]
42 | COCCn1c(C)cc(C(=O)COC(=O)C23CC4CC(CC(O)(C4)C2)C3)c1C |  | inconclusive: 20 µM [activator, single point]
43 | CCNc1nc2c(c(=O)[nH]c(=O)n2C)n1Cc1ccc(F)cc1 |  | inconclusive: 35.5 µM [activator, single point]
44 | COc1ccc(N2C(=O)C(Cl)=C(NCc3ccccc3)C2=O)cc1 | inactive: -0.253% | 
45 | Cc1ccc(NC(=O)Nc2ccccc2)cc1[N+](=O)[O-] |  | active: 12.6 µM
46 | CO/N=C/NC(=O)NOCc1ncc(C(F)(F)F)cc1Cl |  | inconclusive: 0.562 µM [activator, full curve, poor fit]
47 | O=C(/C=C/c1ccco1)Nc1ccc2nn(-c3ccccc3)nc2c1 | inactive: 15.7% | 
48 | COc1ccccc1NS(=O)(=O)c1ccc(NC(=O)c2nc3ncccn3n2)cc1 |  | inconclusive: 3.16 µM [activator, partial curve, poor fit]

Row | SMILES | activity change, positive = activation | Potency
49 | Cc1coc(C)c1C(=O)CC1(O)C(=O)N(CCc2ccccc2)c2ccccc21 (configuration not stated) |  | inconclusive: 0.0032 µM [activator, full curve, poor fit]
50 | COc1ccc(NC(=O)CSC2=NC(=O)CC(C)=N2)cc1 |  | inconclusive: 0.794 µM [activator, full curve, poor fit]
51 | CCN(CC)c1ccc(NC(=O)c2cccc(OC)c2)c(C)c1 |  | inconclusive: 12.6 µM [activator, single point]
52 | CC1(C)Cc2c(ccc3ccccc23)C(=O)N1 |  | inconclusive: 31.6 µM [activator, single point]
53 | COC(=O)c1ccccc1NC(=O)c1ccc(-c2cccc(Cl)c2)o1 |  | active: 10 µM
54 | COc1ccccc1NC(=O)N(Cc1ccco1)Cc1cc2c(C)ccc(C)c2[nH]c1=O | inactive: -11.4% | 
55 | CCOC(=O)c1sc(=NC(=O)/C=C/c2cccs2)n(C)c1C |  | inconclusive: 7.94 µM [activator, partial curve]
56 | O=C(Nc1ccc2c(c1)OCO2)Nc1ccc(Cl)cc1Cl |  | inconclusive: 35.5 µM [activator, single point]
57 | CCC(CC)C(=O)Nc1cccc(/C(C)=N\NC(=O)c2ccc(C)s2)c1 | inactive: 27.9% | 
58 | O=C(COC(=O)Cc1ccccc1F)Nc1ccc(F)cc1F |  | inconclusive: 5.62 µM [activator, single point]
59 | CCOC(=O)C1CCCN(C(=O)COc2ccc(S(=O)(=O)N(CC)c3ccccc3)cc2)C1 (configuration not stated) | inactive: -14.9% | 
60 | O=C(COc1ccccc1)Nc1sc2c(c1C(=O)NCc1cccnc1)CCCC2 |  | inconclusive: 11.2 µM [activator, partial curve]
61 | Cc1ccccc1Cn1c(=O)n(CCCC(=O)NCc2ccco2)c(=O)c2ccccc21 |  | inconclusive: 5.62 µM [activator, single point]
62 | COc1ccc2c(c1)cc1n2CCN2CCCN=C12 |  | inconclusive: 11.2 µM [activator, partial curve, poor fit]
63 | CCC(=O)Nc1cccc(NC(=S)NC(=O)c2cccs2)c1 |  | active: 28.2 µM
64 | CCOC(=O)C1CCCN(C(=O)c2cn(C)c3ccc(S(=O)(=O)N4CCCC4)cc3c2=O)C1 (configuration not stated) |  | active: 11.2 µM
65 | CC1CCC2(CC1)NC(=O)N(CC(=O)c1ccc[nH]1)C2=O (configuration not stated) |  | inconclusive: 0.0112 µM [activator, full curve, poor fit]
66 | Cc1ccc2cc(CN(CC3CCCO3)C(=S)NCc3ccco3)c(=O)[nH]c2c1C (configuration not stated) |  | inconclusive: 35.5 µM [activator, single point]
67 | O=C(Nc1ccccc1N1CCN(C(=O)c2ccccc2)CC1)c1cc2ccccc2o1 |  | inconclusive: 1.41 µM [activator, full curve]
68 | CC(=O)c1ccc(N2Cc3ccccc3/C2=N\C(=O)Nc2ccccc2)cc1 |  | inconclusive: 22.4 µM [activator, partial curve]
69 | Nc1nn(-c2ccccc2)c(N)c1N=Nc1ccccc1F |  | active: 3.55 µM
70 | CCCCn1nnc(N(C(=O)c2cccs2)C(=O)c2cccs2)n1 |  | inconclusive: 17.8 µM [activator, single point]
71 | CCc1nnc(NC(=O)c2ccc3c(c2)C(=O)N(CC(C)C)C3=O)s1 |  | inconclusive: 1.41 µM [activator, partial curve]
72 | Cc1cc(C(=O)Cn2nc(C(=O)O)c3ccccc3c2=O)c(C)n1-c1ccc(F)cc1 |  | inconclusive: 20 µM [activator, single point]
